{"source": "the supplement of paper PMC4604168 (melanoma cell lines)", "note": "The list shows a part of the results. Many values rest on one well or one pass, so single values are uncertain.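 Further: cells treated in 1,536-well plates, then fixed and DAPI-stained, with nuclei counted from automated high-throughput microscope images.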"}
{"test_system": "A2058", "test": "cell count relative to DMSO control; melanoma cells; higher = more viable cells", "details": "library dose: standard library concentration; 72 h", "units": {"cell count": "%"}}
{"molecule": "CCCCCCCCc1ccc(CCC(N)(CO)CO)cc1", "note": "[fingolimod] + CC(=O)O[C@@]12CO[C@@H]1C[C@H](O)[C@@]1(C)C(=O)[C@H](O)C3=C(C)[C@@H](OC(=O)[C@H](O)[C@@H](NC(=O)OC(C)(C)C)c4ccccc4)C[C@@](O)([C@@H](OC(=O)c4ccccc4)[C@H]21)C3(C)C [Docetaxel] (first compound 10 µM, partner dose 0.0005 µM)", "cell count": 6.29}
{"molecule": "CC(C)(C)c1cnc(CSc2cnc(NC(=O)C3CCNCC3)s2)o1", "note": "+ C[C@@H]1CCN(C(=O)CC#N)C[C@@H]1N(C)c1ncnc2[nH]ccc12 [CP690550] (first compound 0.05 µM, partner dose 5 µM)", "cell count": 76}
{"molecule": "NC(=O)c1ccc(N(C(N)=O)c2c(F)cccc2F)nc1-c1ccc(F)cc1F", "note": "+ C#Cc1cccc(Nc2ncnc3cc(OCCOC)c(OCCOC)cc23)c1 [erlotinib] (first compound 2 µM, partner dose 4 µM)", "cell count": 66.7}
{"molecule": "NC(=O)c1ccc(N(C(N)=O)c2c(F)cccc2F)nc1-c1ccc(F)cc1F", "note": "+ Cc1ccc(NC(=O)c2cccc(N(C)C)c2)cc1NC(=O)c1ccc(O)cc1 [ZM336372] (first compound 2 µM, partner dose 10 µM)", "cell count": 83.1}
{"molecule": "CCCCCCCCc1ccc(CCC(N)(CO)CO)cc1", "note": "[fingolimod] + Nc1cccc2c1CN(C1CCC(=O)NC1=O)C2=O [lenalidomide] (first compound 10 µM, partner dose 5 µM)", "cell count": 7.07}
{"molecule": "CCCCCCCCc1ccc(CCC(N)(CO)CO)cc1", "note": "[fingolimod] + O=C(O)c1ccc2c(c1)nc(Nc1cccc(Cl)c1)c1ccncc12 [CX4945] (first compound 10 µM, partner dose 2 µM)", "cell count": 9.53}
{"molecule": "CCCCCCCCc1ccc(CCC(N)(CO)CO)cc1", "note": "[fingolimod] + CS(=O)(=O)CCNCc1ccc(-c2ccc3ncnc(Nc4ccc(OCc5cccc(F)c5)c(Cl)c4)c3c2)o1 [lapatinib] (first compound 10 µM, partner dose 4 µM)", "cell count": 7.76}
{"molecule": "Cc1ccc(NC(=O)c2cccc(N(C)C)c2)cc1NC(=O)c1ccc(O)cc1", "note": "+ O=C(Nc1cccc(Cl)c1)Nc1ncc(CCNc2ncnc3ccsc23)s1 [SNS314] (first compound 10 µM, partner dose 0.004 µM)", "cell count": 78.5}
{"molecule": "Cc1ccc(NC(=O)c2cccc(N(C)C)c2)cc1NC(=O)c1ccc(O)cc1", "note": "+ CC(C)(C)c1cnc(CSc2cnc(NC(=O)C3CCNCC3)s2)o1 [SNS-032] (first compound 10 µM, partner dose 0.05 µM)", "cell count": 92.1}
{"molecule": "CCCCCCCCc1ccc(CCC(N)(CO)CO)cc1", "note": "[fingolimod] + CC1(C)NC(=O)N(c2ccc([N+](=O)[O-])c(C(F)(F)F)c2)C1=O [nilutamide] (first compound 10 µM, partner dose 5 µM)", "cell count": 6.11}
{"molecule": "NC(=O)c1ccc(N(C(N)=O)c2c(F)cccc2F)nc1-c1ccc(F)cc1F", "note": "+ NC(=O)Nc1cc(-c2cccc(F)c2)sc1C(=O)N[C@H]1CCCNC1 [AZD7762] (first compound 2 µM, partner dose 0.1 µM)", "cell count": 72.5}
{"molecule": "NC(=O)c1ccc(N(C(N)=O)c2c(F)cccc2F)nc1-c1ccc(F)cc1F", "note": "+ CS(=O)(=O)CCNCc1ccc(-c2ccc3ncnc(Nc4ccc(OCc5cccc(F)c5)c(Cl)c4)c3c2)o1 [lapatinib] (first compound 2 µM, partner dose 4 µM)", "cell count": 87}
{"molecule": "Cc1ccc(NC(=O)c2cccc(N(C)C)c2)cc1NC(=O)c1ccc(O)cc1", "note": "+ Oc1nc(-c2ccc(C(F)(F)F)cc2)nc2c1CSCC2 [XAV939] (first compound 10 µM, partner dose 10 µM)", "cell count": 93.6}
{"molecule": "CCCCCCCCc1ccc(CCC(N)(CO)CO)cc1", "note": "[fingolimod] + Nc1ccn([C@@H]2O[C@H](CO)[C@@H](O)C2(F)F)c(=O)n1 [gemcitabine] (first compound 10 µM, partner dose 0.002 µM)", "cell count": 6.14}
{"molecule": "CCCCCCCCc1ccc(CCC(N)(CO)CO)cc1", "note": "[fingolimod] + Cc1nc(Nc2ncc(C(=O)Nc3c(C)cccc3Cl)s2)cc(N2CCN(CCO)CC2)n1 [dasatanib] (first compound 10 µM, partner dose 0.02 µM)", "cell count": 6.25}
{"molecule": "COc1cc2c(Oc3ccc4[nH]c(C)cc4c3F)ncnc2cc1OCCCN1CCCC1", "note": "[cediranib] + c1cc(-c2cnn3cc(-c4ccc(OCCN5CCCCC5)cc4)cnc23)ccn1 [Dorsomorphin] (first compound 2 µM, partner dose 2 µM)", "cell count": 67.5}
{"molecule": "CCCCCCCCc1ccc(CCC(N)(CO)CO)cc1", "note": "[fingolimod] + O=c1cc(-c2cccc3c2Sc2ccccc2S3)oc(N2CCOCC2)c1 [KU55933] (first compound 10 µM, partner dose 5 µM)", "cell count": 2.83}
{"molecule": "CCCCCCCCc1ccc(CCC(N)(CO)CO)cc1", "note": "[fingolimod] + C[C@@H](Oc1cc(-c2cnn(C3CCNCC3)c2)cnc1N)c1c(Cl)ccc(F)c1Cl [Crizotinib] (first compound 10 µM, partner dose 1 µM)", "cell count": 9.11}
{"molecule": "NC(=O)c1ccc(N(C(N)=O)c2c(F)cccc2F)nc1-c1ccc(F)cc1F", "note": "+ CN(NC(=O)CC(=O)NN(C)C(=S)c1ccccc1)C(=S)c1ccccc1 [STA4783] (first compound 2 µM, partner dose 0.03 µM)", "cell count": 18.2}
{"molecule": "NC(=O)c1ccc(N(C(N)=O)c2c(F)cccc2F)nc1-c1ccc(F)cc1F", "note": "+ Cn1nnc2c(C(N)=O)ncn2c1=O [temozolomide] (first compound 2 µM, partner dose 10 µM)", "cell count": 37.7}
{"molecule": "CCCCCCCCc1ccc(CCC(N)(CO)CO)cc1", "note": "[fingolimod] + COc1cc(Nc2ncc(F)c(Nc3ccc4c(n3)NC(=O)C(C)(C)O4)n2)cc(OC)c1OC [Tamatinib] (first compound 10 µM, partner dose 2 µM)", "cell count": 2.16}
{"molecule": "CCCCCCCCc1ccc(CCC(N)(CO)CO)cc1", "note": "[fingolimod] + COc1cc2c(Oc3ccc4[nH]c(C)cc4c3F)ncnc2cc1OCCCN1CCCC1 [cediranib] (first compound 10 µM, partner dose 2 µM)", "cell count": 4.1}
{"molecule": "NC(=O)c1ccc(N(C(N)=O)c2c(F)cccc2F)nc1-c1ccc(F)cc1F", "note": "+ O=C(Nc1cccc(Cl)c1)Nc1ncc(CCNc2ncnc3ccsc23)s1 [SNS314] (first compound 2 µM, partner dose 0.004 µM)", "cell count": 77.7}
{"molecule": "CCCCCCCCc1ccc(CCC(N)(CO)CO)cc1", "note": "[fingolimod] + O=C(CCCCCCC(=O)Nc1ccccc1)NO [vorinostat] (first compound 10 µM, partner dose 0.4 µM)", "cell count": 4.08}
{"molecule": "NC(=O)c1ccc(N(C(N)=O)c2c(F)cccc2F)nc1-c1ccc(F)cc1F", "note": "+ O=C(O)c1ccc(-c2c[nH]c3ncc(-c4ccccc4)cc23)cc1C1CCCC1 [GSK650394] (first compound 2 µM, partner dose 0.8 µM)", "cell count": 119}
{"molecule": "CCCCCCCCc1ccc(CCC(N)(CO)CO)cc1", "note": "[fingolimod] + COCC[n+]1c2c(n(Cc3cnccn3)c1C)C(=O)c1ccccc1C2=O [YM155] (first compound 10 µM, partner dose 0.002 µM)", "cell count": 5.53}
{"molecule": "NC(=O)c1ccc(N(C(N)=O)c2c(F)cccc2F)nc1-c1ccc(F)cc1F", "note": "+ CC(=O)c1c(C)c2cnc(Nc3ccc(N4CCNCC4)cn3)nc2n(C2CCCC2)c1=O [palbociclib] (first compound 2 µM, partner dose 0.2 µM)", "cell count": 121}
{"molecule": "CCCCCCCCc1ccc(CCC(N)(CO)CO)cc1", "note": "[fingolimod] + Nc1nc(F)nc2c1ncn2[C@@H]1O[C@H](CO)[C@@H](O)[C@@H]1O [fludarabine] (first compound 10 µM, partner dose 1 µM)", "cell count": 4.65}
{"molecule": "NC(=O)c1ccc(N(C(N)=O)c2c(F)cccc2F)nc1-c1ccc(F)cc1F", "note": "+ CCCS(=O)(=O)Nc1ccc(F)c(C(=O)c2c[nH]c3ncc(Cl)cc23)c1F [PLX4720] (first compound 2 µM, partner dose 0.4 µM)", "cell count": 69.9}
